Test results published in PubChem BioAssay AID1745845 (National Center for Advancing Translational Sciences (NCATS), 2022).
The campaign covered roughly 360,000 compounds. About 2,600 (0.72%) were called active. The shares of active, inactive and inconclusive entries below differ from those in the screen. Calls come from the whole dose curve; as a rule, active = well fitted inhibition curve with a large enough effect; inconclusive = small, poorly fitted or top-dose-only effect; inactive = no such curve, though single readings can be large or run the other way. Where the call is inconclusive, the potency comes from a doubtful curve fit.

Assay: Primary qHTS for Inhibitors of ATXN expression; note: nearly all actives have a fitted effect of over 55% in size
Settings: HEK-293 ATXN2-luciferase reporter, luminescence, 24 h; activity change, negative = inhibition: at 57 µM (top of the series)
Procedure, shortened: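 qHTS (up to 57 uM final) was run with 24 h compound exposure of reporter cells at 37 °C. Each well was multiplexed: SteadyGlo luminescence measured ATXN2-luciferase expression after a fluorogenic Gly-Phe-AFC viability readout (25 uM final).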
% is set by controls: 0 for no effect and ±100 for the full control effect; potency is the fitted concentration of half-maximal effect; tags give direction and shape of the fitted curve.

Potency, active:
CCOc1cc(/C=N/Nc2cccc(C(=O)O)c2)ccc1OC(=O)c1ccccc1 14.1 µM
Cc1ccc(Cc2c(C)nc3c(-c4ccccc4)c(C)[nH]n3c2=O)cc1 15.8 µM
O=C(N/N=C/c1cc([N+](=O)[O-])ccc1O)c1ccc(COc2ccc3c(c2)CCC3)o1 7.94 µM
CCc1ccc(-c2cc(C(F)(F)F)n3nc(C(=O)Nc4cnn(Cc5ccc(C)cc5)c4)cc3n2)s1 11.2 µM
CC(CCc1ccccc1)NC(=O)c1ccc(C(=O)NC(C)CCc2ccccc2)cc1 (configuration not stated) 6.31 µM
Cc1sc2ncnc(Sc3nnnn3-c3ccccc3)c2c1C 15.8 µM

Potency, inactive:
Cc1ccc(C)c(NC(=O)CSc2ncc3c(n2)-c2cc(Cl)ccc2N(Cc2ccccc2F)S3(=O)=O)c1
O=C(CC1S/C(=N/N=C2CCCCCC2)NC1=O)Nc1ccc(Br)cc1F (configuration not stated)
CCSc1ncc(Cl)c(C(=O)Nc2ccc(S(=O)(=O)Nc3nccc(C)n3)cc2)n1
CCOC(=O)/C(=C/C1=CC(=C/N(C)C)/C(=O)O1)C(C)=O
CC(=O)/C(=N\Nc1ccccc1Cl)Sc1nnc(-c2ccccc2)n1-c1ccccc1
O=C(Nc1ncc(Cc2ccccc2Cl)s1)C1=NCCN1
NS(=O)(=O)c1ccc(NC(=O)CCC(=O)c2ccc(Cl)s2)cc1
C=C1CCC[C@]2(C)C[C@H]3OC(=O)C(CNCC(OC)OC)[C@H]3CC12 (some centres not stated)
CC(=O)c1c(C)cc(C)c(CSc2nnc(-c3ccco3)o2)c1C
COc1ccc(C2CC(=O)Oc3c(C(CCN4CCCCC4)c4ccc(N(C)C)cc4)c(OC)cc(OC)c32)cc1 (configuration not stated)
CCOc1ccc(-n2c(SCC(=O)c3ccccc3)nc3c([nH]c4ccccc43)c2=O)cc1
Cc1onc(-c2c(F)cccc2Cl)c1C(=O)NC(=S)NCc1cccnc1
O=C(CC[C@H]1O[C@@H](n2ccc(=O)[nH]c2=O)[C@H](O)[C@@H]1O)NCC1CCCO1 (some centres not stated)
COCc1cc(C)nc(SCC(=O)Nc2ccc(C)c(C)c2)c1C#N
CCn1cc([N+](=O)[O-])c(=O)c2cc(F)c(N3CCOCC3)cc21
C[C@H](CO)N1C[C@H](C)[C@@H](CN(C)Cc2ccc(Cl)c(Cl)c2)Oc2c(NC(=O)C3CCOCC3)cccc2C1=O
COc1ccc(-n2c(=O)c3c4c(sc3n(CC(=O)NCC3CCCO3)c2=O)CCCC4)c(OC)c1 (configuration not stated)
CC(C)C[C@H](NC(=O)c1nc[nH]c1C(=O)NCC(=O)OC(C)(C)C)C(=O)OCc1ccccc1
O=C(CSc1nc(C2CC2)nc2ccccc12)Nc1ccccc1N1CCOCC1
Cc1ccc(C)c2sc(NC(=O)c3ccc(N4C(=O)CCC4=O)cc3)nc12
Cc1nc2nc(C)c(CCC(=O)NCc3cccc(Cl)c3)c(C)n2n1
CC(=O)Nc1ccc(-c2cn3cc(C)ccc3n2)cc1
O=C(Cc1ccc(Br)cc1)NCCc1ccc(F)cc1

Potency, inconclusive:
COc1ccc(Cn2ccc3nc(C)c(C(=O)NCc4ccc(C)cc4)cc3c2=O)cc1 1 µM [inhibitor, full curve, poor fit]
COc1ccccc1-n1cnc2cc(NS(=O)(=O)c3ccc(Br)cc3)ccc21 39.8 µM [inhibitor, partial curve, poor fit]
O=C(O)c1cccc(-c2noc(-c3ccccc3F)n2)c1 6.31 µM [inhibitor, full curve, poor fit]
COc1ccc(/C=N/NC(=O)c2cc(C34CC5CC(CC(C5)C3)C4)[nH]n2)cc1OC 37.7 µM [inhibitor, single point]
Cc1ccc2c(c1)c1c3n2CCCN(Cc2ccccc2)C3CCC1 (configuration not stated) 39.8 µM [inhibitor, single point]
Cc1ccc(-c2nnc(N3CCN(c4ccccn4)CC3)c3ccccc23)cc1 28.2 µM [inhibitor, single point]
Cc1cccc(C)c1OCCn1c(C2CC(=O)N(Cc3ccc(F)cc3)C2)nc2ccccc21 (configuration not stated) 39.8 µM [inhibitor, single point]
Cc1ccoc1C(=O)Nc1ccc(CC(=O)O)cc1 0.708 µM [inhibitor, full curve]
O=[N+]([O-])c1ccc(Cl)c(C2Nc3cccc4cccc(c34)N2)c1 22.4 µM [inhibitor, partial curve, poor fit]
COc1ccc(CN(C)C(=O)c2[nH]c(C)c(C(C)=O)c2C)c(OC)c1OC 3.98 µM [inhibitor, single point]
O=C(Nc1cc(S(=O)(=O)N2CCCCC2)ccc1Cl)c1ccccc1NS(=O)(=O)c1ccc(F)cc1 15.8 µM [inhibitor, partial curve]
CCn1nc(C(=O)Nc2ccccc2N2CCCC2)c2ccccc2c1=O 0.501 µM [inhibitor, single point]
CCN1CCN(CCNC(=O)c2ccc(/C=C3/Sc4ccccc4N(Cc4ccccc4C)C3=O)cc2)CC1 25.1 µM [inhibitor, single point]
Cc1cc(C)cc(OCC(=O)N2N=C(C(F)(F)F)CC2(O)C(C)(C)C)c1 (configuration not stated) 22.4 µM [inhibitor, partial curve, poor fit]
CC(C)Nc1nc(Nc2ccc(C#N)cc2)c2sccc2n1 20 µM [inhibitor, partial curve, poor fit]
CC1(C)Cc2c(-c3ccccc3)c(-c3ccc(Cl)cc3)c(CC(=O)O)n2C1 24.3 µM [inhibitor, partial curve]
CCc1nnc(NC(=O)c2ccc(OC)cc2OC)s1 17.8 µM [inhibitor, single point]
CC(C)NC(=O)C1(C#N)C=C1c1ccccc1 (configuration not stated) 31.6 µM [inhibitor, single point]
C=CC[C@H](CC(=O)N(CCO)Cc1ccccc1)C(=O)N[C@@H](COC(=O)[C@H](CC=C)CC(=O)OC(C)(C)C)Cc1c[nH]c2ccccc12 28.2 µM [inhibitor, single point]
CCOC(=O)NC(=O)COC(=O)CCCSc1nc2ccccc2s1 18.9 µM [inhibitor, partial curve, poor fit]
Cc1ccccc1-c1cc(C(=O)Nc2sc(C(=O)OC(C)C)c(C)c2C#N)c2ccccc2n1 28.2 µM [inhibitor, single point]
Cc1cccc(N2CCN(C(=O)C3CCN(S(=O)(=O)c4cccnc4)CC3)CC2)c1C 28.2 µM [inhibitor, partial curve, poor fit]
O=C1c2ccccc2C(=O)N1c1cccc(-c2nc3ccccc3o2)c1 15.8 µM [inhibitor, partial curve, poor fit]
O=C(Nc1ccc(F)c(F)c1)c1ccc(F)c(S(=O)(=O)N2CCC3(CC2)OCCO3)c1 20 µM [inhibitor, partial curve, poor fit]
CC(C)(C)c1cc(NCCCn2ccnc2)n2ncc(-c3ccc(Cl)cc3)c2n1 39.8 µM [inhibitor, single point]
COc1cc(C2CC(=O)N(CC(=O)Nc3ccccc3F)c3ccccc3S2)cc(OC)c1OC (configuration not stated) 31.6 µM [inhibitor, single point]
O=C(NCCOc1ccc(Cl)cc1)c1cccc(S(=O)(=O)N2CCCC2)c1 39.8 µM [inhibitor, partial curve, poor fit]
O=C(Nc1cc(Sc2ccccn2)cc([N+](=O)[O-])c1)c1cccc(Cl)c1 22.4 µM [inhibitor, single point]
CCCCC[C@@H](C)N1C[C@@H](COCc2ccccc2)Oc2cc(N3CC[C@H](O)C3)ccc2S1(=O)=O 39.8 µM [inhibitor, single point]
CC(=O)Nc1cccc(-c2cc(NC(C)=O)c3ncc(-c4ccccc4)n3c2)c1 22.4 µM [inhibitor, single point]
C#CCN(Cc1ccccc1)S(=O)(=O)C=C 31.6 µM [inhibitor, single point]
CC(=O)C1=CCC(c2ccc(Cl)cc2)N(S(=O)(=O)c2ccc(C)cc2)C1 (configuration not stated) 35.5 µM [inhibitor, single point]
Cc1cccc(-n2c(=O)[nH]c3c(C(N)=O)nc(-c4ccccc4Cl)nc32)c1 39.8 µM [inhibitor, single point]
COC(=O)c1ccccc1COc1cccn2c(N(C)C(=O)CCC3CCCC3)c(C)nc12 39.8 µM [inhibitor, single point]
CN(C(=O)c1ccc(S(=O)(=O)c2cccc(Cl)c2)c([N+](=O)[O-])c1)C1CCCCC1 28.2 µM [inhibitor, single point]
NNC(=O)c1nc[nH]c1C(=O)Nc1ccccc1[N+](=O)[O-] 10 µM [inhibitor, partial curve, poor fit]
O=C(/C=C/c1ccc(F)cc1)NC(=S)NNC(=O)c1cnccn1 26.7 µM [inhibitor, single point]

Activity change, negative = inhibition, inconclusive:
COC(=O)c1ccccc1NC(=O)CN1CCCCCC1 -42% [inhibitor]
